Laboratory results as given in PubChem BioAssay AID588342 (National Center for Advancing Translational Sciences (NCATS), 2011).
Among all 360,000 compounds or so, about 25,000 (6.9%) were called active. Inconclusive means that the source gave no clear call. Such entries were picked first, then a sample of the others. The call rests on the fitted dose curve; in most records, active means well fitted inhibition curve with a large enough effect; inconclusive means small, poorly fitted or top-dose-only effect; inactive means flat fitted curve, though single readings scatter. Potencies of inconclusive entries are doubtful fits and often do not repeat.

molecular target: Luciferin 4-monooxygenase (Photinus pyralis) (UniProt P08659); experiment: qHTS profiling assay for firefly luciferase inhibitor/activator using purifed enzyme and Km concentrations of substrates (counterscreen for miR-21 project); details: purified FLuc, luminescence inhibition; series mostly up to 57.5 µM; further: nearly all actives have a fitted effect of over 55% in size
How it was run: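 Biochemical qHTS of compounds, final roughly 60 µM downward over six points, against 10 nM purified firefly luciferase using Km concentrations of substrates (10 uM D-luciferin, 10 uM ATP) in Tris acetate pH 7.5 buffer; luminescence output.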
Potency means the concentration at half of the fitted maximal effect; tags describe the fitted curve by direction and shape.

Sequence of UniProt P08659 (P08659 whole entry, looked up): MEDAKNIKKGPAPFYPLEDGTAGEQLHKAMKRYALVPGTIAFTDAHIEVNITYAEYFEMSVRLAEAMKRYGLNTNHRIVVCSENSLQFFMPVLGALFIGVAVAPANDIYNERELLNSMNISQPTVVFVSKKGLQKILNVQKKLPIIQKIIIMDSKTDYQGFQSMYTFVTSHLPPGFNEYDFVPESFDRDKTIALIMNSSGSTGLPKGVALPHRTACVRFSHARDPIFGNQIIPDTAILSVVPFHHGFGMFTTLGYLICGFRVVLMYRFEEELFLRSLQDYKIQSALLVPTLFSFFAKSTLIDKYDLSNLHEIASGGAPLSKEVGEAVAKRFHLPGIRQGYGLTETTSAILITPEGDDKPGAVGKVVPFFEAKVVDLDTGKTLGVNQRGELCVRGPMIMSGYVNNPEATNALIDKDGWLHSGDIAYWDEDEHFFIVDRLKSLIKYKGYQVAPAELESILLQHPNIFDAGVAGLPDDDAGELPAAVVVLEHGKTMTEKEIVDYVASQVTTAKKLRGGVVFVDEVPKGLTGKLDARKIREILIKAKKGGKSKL

SMILES | Potency
CCOC(=O)c1c(NC(=O)Cc2coc3cc(C)cc(C)c23)sc2c1CCC2 | inactive
COc1ccc(-c2cccc(C(=O)N3CCOCC3)c2)cc1 | inconclusive: 37.9 µM [inhibitor, partial curve, poor fit]
CC1CCN(C(=O)CN(CCc2ccccc2)S(C)(=O)=O)CC1 | inactive
COC(=O)c1ccc2c(C)c(C(C)(C)O)[nH]c2c1 | inconclusive: 23.9 µM [inhibitor, single point]
O=C(Nc1ccccc1C(F)(F)F)NC1CCCCCCC1 | inconclusive: 30.1 µM [inhibitor, partial curve, poor fit]
Cc1ccc(-c2cc(C(=O)NCC3CCCO3)c3ccccc3n2)cc1C (stereo unspecified) | active: 6.75 µM
S=c1[nH]ncn1/N=C/c1ccc(Br)cc1 | inconclusive: 23.9 µM [inhibitor, partial curve, poor fit]
CCOC(=O)c1ccc(-c2ccc(C=O)o2)cc1 | active: 23.9 µM
CCc1n[nH]c(=O)c2cc3cc(OC)ccc3n12 | inconclusive: 37.9 µM [inhibitor, partial curve, poor fit]
CCOC(=O)c1cn2nc(Oc3ccccc3)ccc2n1 | active: 15.1 µM
O=C(CCN1C(=O)c2ccccc2S1(=O)=O)Nc1nc2c(s1)CCCC2 | inconclusive: 26.9 µM [inhibitor, single point]
Cc1ccc(NC(=O)CN2C(=O)S/C(=C\c3cc(C)n(-c4cccc(C(=O)O)c4)c3C)C2=O)cc1 | inconclusive: 23.9 µM [inhibitor, single point]
Cc1ccc(C)n1-c1ccsc1C(=O)CC#N | inactive
O=S(=O)(c1ccccc1Cl)N1CCC(O)(c2ccc3c(c2)OCO3)CC1 | inactive
COc1cccc(CNC(=O)c2cnc3c(-c4ccc(F)cc4)c(C)nn3c2C)c1 | inactive
CCCOc1ccc(C(=O)NNC(=S)NC(=O)c2cc(-c3ccc(Cl)cc3)nc3ccccc23)cc1 | inconclusive: 9.53 µM [inhibitor, partial curve]
Cc1noc(C(=O)Nc2ccc3c(c2)OCO3)c1Cl | active: 19 µM
Cc1cc(NC(=O)c2ccccc2O)nc(C)n1 | inconclusive: 23.9 µM [inhibitor, single point]
Cc1cc(C(F)(F)F)n(-c2nc(C(=O)NN)cs2)n1 | inactive
CC(/C=N/NC(=O)c1cc(-c2ccc(Cl)cc2)nc2ccccc12)=C\c1ccco1 | inconclusive: 10.7 µM [inhibitor, partial curve]
Cc1ccc(OCCSc2nc(-c3ccccc3C)nc3cc(=O)[nH]n23)cc1Cl | inconclusive: 37.9 µM [inhibitor, partial curve, poor fit]
